Reference: PubChem BioAssay AID1645887 (National Center for Advancing Translational Sciences (NCATS), 2021)
“And” between values parts separate entries of the source, which are not always exact repeats. Identical values can stand only once. Screen size: about 16,000 compounds; about 40 (0.2%) were called active. About 1% were inconclusive and are not listed. Calls follow the shape of the dose curve; as a rule, active = well fitted activation curve with a large enough effect; inconclusive = small, poorly fitted or top-dose-only effect, or another doubt; inactive = no such curve, though single readings can be large or run the other way. This is one part of the list.

The molecules below were run against Rap guanine nucleotide exchange factor 4 (Homo sapiens) (UniProt Q8WZA2) (assay: Validation qHTS for agonist of cAMP-regulated guanine nucleotide exchange factor 4 (EPAC2)). Details: EPAC2 Rap1B BODIPY-GDP exchange, fluorescence; activation: active compounds read high.
In short: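 Fluorescent exchange assay: 100 nM EPAC2 with 250 nM RAP1B-BODIPY-GDP and 50 uM GDP; compound added, 5 min at room temperature, then read (ex 480/em 540 nm) every 5 min for 30 min. Normalized to 6.5 mM cAMP agonist control.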
% is scaled to controls: 0 for no effect and ±100 for the full control effect.
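Also: exchange makes BODIPY-GDP fluorescence drop when released from Rap1B; series mostly up to about 150 µM.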

UniProt Q8WZA2, sequence (Q8WZA2 whole entry, looked up): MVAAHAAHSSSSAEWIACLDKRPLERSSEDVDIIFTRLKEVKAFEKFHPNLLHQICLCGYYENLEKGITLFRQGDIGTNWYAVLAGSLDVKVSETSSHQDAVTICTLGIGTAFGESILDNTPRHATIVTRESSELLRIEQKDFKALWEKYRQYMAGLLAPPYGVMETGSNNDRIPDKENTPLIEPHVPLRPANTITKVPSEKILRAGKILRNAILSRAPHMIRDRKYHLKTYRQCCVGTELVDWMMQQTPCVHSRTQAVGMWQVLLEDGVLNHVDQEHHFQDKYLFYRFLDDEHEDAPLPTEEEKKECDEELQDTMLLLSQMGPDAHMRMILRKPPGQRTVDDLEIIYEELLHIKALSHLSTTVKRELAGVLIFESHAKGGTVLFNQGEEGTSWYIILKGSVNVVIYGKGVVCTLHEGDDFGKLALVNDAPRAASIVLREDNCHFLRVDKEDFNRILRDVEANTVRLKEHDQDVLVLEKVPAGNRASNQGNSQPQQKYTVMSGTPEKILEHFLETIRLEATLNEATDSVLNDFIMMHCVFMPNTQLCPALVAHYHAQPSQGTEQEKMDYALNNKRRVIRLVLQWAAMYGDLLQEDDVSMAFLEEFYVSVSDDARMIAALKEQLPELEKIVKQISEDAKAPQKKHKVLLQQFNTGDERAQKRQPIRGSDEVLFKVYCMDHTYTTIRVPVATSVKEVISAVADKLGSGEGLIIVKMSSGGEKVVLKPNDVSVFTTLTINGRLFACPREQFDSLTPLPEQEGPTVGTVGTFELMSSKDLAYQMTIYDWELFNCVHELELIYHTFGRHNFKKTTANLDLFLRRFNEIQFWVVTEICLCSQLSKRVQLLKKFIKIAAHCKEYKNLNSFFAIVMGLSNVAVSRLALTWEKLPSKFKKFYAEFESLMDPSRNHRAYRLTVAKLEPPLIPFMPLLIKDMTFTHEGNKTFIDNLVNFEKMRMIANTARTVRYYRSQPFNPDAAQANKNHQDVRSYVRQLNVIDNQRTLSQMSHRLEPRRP

activation, inactive:
C(=C\c1ccnc2ccccc12)/c1ccc2ccccc2n1 -17%
Cn1c(-c2ccncc2)nc2cc(C(=O)N3CCCC3c3nccs3)cc(NC(=O)C3CCC3)c21 (stereo unspecified) 1.79%
COC(C)(C)CCCC(C)C/C=C/C(C)=C/C(=O)O (stereo unspecified) -7.06%
COc1cccc(CCNc2ncnc3sc(C(=O)N4CCOCC4)c(C)c23)c1 1.29%
c1ccc(-n2cnnn2)cc1 -5.07%
COc1ccccc1N1CCN(CCn2c(=O)[nH]c3c([nH]c4ccccc43)c2=O)CC1 -30.8% and 4.22% and -8.95%
Cn1c(=O)c2c(ncn2CCO)n(C)c1=O -9% and -0.365%
Cc1cccc2cc(CN(CC3CCCO3)C(=O)c3ccccc3F)c(N(C)C)nc12 (stereo unspecified) -4.14%
c1csc(CNc2ncnc3ccc(-c4ccoc4)cc23)c1 -11.4%
CC(O)(COc1ccccc1)c1ccc2c(c1)CN(Cc1ccccn1)CCO2 (stereo unspecified) 9.44%
COC(=O)CC1C(C)(C)C(O)C2CC3=C4CC(O)OC(c5ccoc5)[C@]4(C)CCC3[C@@]1(C)C2=O (stereo partly specified) -15.2%
Cc1ccc2nccnc2c1 -24.5%
COc1ccccc1CNc1ccnc(-c2ccc(C(=O)N(C)C)cc2)n1 -2.12%
COc1cc(-c2noc(C)c2/C=C/c2ccc(OC(C)=O)cc2)cc(OC)c1OC -7.04%
Nc1[nH]c(=S)[nH]c(=O)c1N -21.8%
CC(CCc1ccc2c(c1)OCO2)NN (stereo unspecified) 6.97%
COc1ccc(C2NC(=S)N3C(c4ccc(OC)c(OC)c4)NC(=S)N23)cc1OC (stereo unspecified) -13.4%
COc1ccc(NC(=O)N2CCC3(CC2)CCN(C(=O)c2cccn2C)CC3)cc1 -15.3%
CC(=O)/C(C)=N/O -9.3%
O=C(NCC1(N2CCOCC2)CCCC1)c1cnn(-c2nccc(-c3ccco3)n2)c1C1CC1 -16.1%
O=C1CC[C@@H](C(=O)N[C@H]2C[C@@H]2c2ccccc2)N1 -4.14%
COC(=O)C1=C(C(=O)OC)[C@]2([C@@H]3C/C=C\CN[C@@H](Cc4ccccc4)C(=O)N3Cc3ccccc3)C=C[C@H]1O2 -13%
CCCCCCCCCCCCCCCCCCCCCC(=O)Nc1ccn([C@@H]2O[C@H](CO)[C@@H](O)[C@@H]2O)c(=O)n1 -12.3%
CC(C)NCC(O)c1cc(O)cc(O)c1 (stereo unspecified) -3.55% and -1.96% and 2.05%
O=C(O)CN(CCN(CC(=O)O)CC(=O)O)CCN(CC(=O)O)CC(=O)O 5.69% and -6.45%
CC(C)(CO)Cc1cc(C(C)(C)C)c(O)c(C(C)(C)C)c1 -19.3% and -20%
O=C1CCC[C@@H]2Cc3nc4cc5c(cc4cc3[C@@H]3CCN1[C@H]23)OCO5 -27.6%
C#CCN(C)CCCOc1ccc(Cl)cc1Cl -6.2% and -15.9%
CCc1cc2c(c(CC)n1)CCC(=O)N2Cc1ccc(-c2ccccc2-c2nn[nH]n2)cc1 4.41%
COc1ccccc1-c1cc(NCc2cccc(C)c2)ncn1 26.1%
CC(C)NC(=O)N1CC2(CCN(C(=O)c3cc(C(F)(F)F)cc(C(F)(F)F)c3)CC2)C1 -11.1%
CCCCCCCCCCCCCCSCC(=O)O -6.75% and -42.7%
COc1ncc2nc(-c3cccs3)c(=O)n(C)c2n1 9.98%
CCCn1cnc2c1c(=O)n(CCCCC(C)=O)c(=O)n2C -11.7% and -26.7%
C#C[C@]1(OC(C)=O)CC[C@H]2[C@@H]3CCC4=C/C(=N/O)CC[C@@H]4[C@H]3CC[C@@]21CC 2.43%
O=C(/C=C/C=C/c1ccc2c(c1)OCO2)N1CCCCC1 6.5%
c1ccc(CNCCNCc2ccccc2)cc1 -2.55%
COc1ccc2[nH]c(C(=O)c3ccccc3)cc2c1 -11.8%
CC(C)CCC[C@@H](C)[C@H]1CC(=O)C2=C3CC[C@H]4C[C@@H](O)CC[C@]4(C)[C@H]3CC[C@@]21C -20.1%
O=c1c2ccccc2nc2n1CCc1c-2[nH]c2ccccc12 -13.3%
CCC(=O)OCC(=O)[C@@]1(OC(=O)CC)[C@@H](C)C[C@H]2[C@@H]3CCC4=CC(=O)C=C[C@]4(C)[C@@]3(Cl)[C@@H](O)C[C@@]21C -0.334%
O=C(O)CCCCCCCCc1cn(CCc2c[nH]c3ccccc23)nn1 -23.3%
CC(=O)OC1CC[C@@]2(C)C3=CC(=O)[C@]4(C)C(CC5OC6(OCC(C)CC6Br)C(C)C54)C3CC[C@H]2C1 (stereo partly specified) -10.4%
OC(c1ccc2c(c1)CN(Cc1ccc3nsnc3c1)CCO2)C1CCCCC1 (stereo unspecified) -13.2%
COc1ccc2c(c1)CCc1cnc(-n3ncc(C(=O)NCc4cccnc4)c3C3CC3)nc1-2 -16.8%
CC[C@@H]([C@H](C)O)n1ncn(-c2ccc(N3CCN(c4ccc(OCC5CO[C@@](Cn6cncn6)(c6ccc(F)cc6F)C5)cc4)CC3)cc2)c1=O (stereo partly specified) 8.36%
CN1CCC(=O)N([C@H](CN=[N+]=[N-])Cc2ccccc2)CC1 1.84%
Cc1c(C(=O)N(C)C2CCOC2)sc2ncnc(NCC3(c4ccccc4)CCOCC3)c12 (stereo unspecified) -18.9%
O=C(O)CCCCC1CCSS1 (stereo unspecified) -1.31% and -8.59% and -6.14%
COCC(=O)O[C@]1(CCN(C)CCCc2nc3ccccc3[nH]2)CCc2cc(F)ccc2[C@@H]1C(C)C -26.6% and -29.2%
O=C(N[C@@H]1CCC(=O)N(CC[C@H](Sc2ccccc2)c2ccccc2)CC1)OCc1ccccc1 -29%
CCN(CC)Cc1cc(Nc2ccnc3cc(Cl)ccc23)ccc1O -15.3% and -6.09%
C=CCN1c2ccc(Br)cc2C(=O)CS1(=O)=O -7.43%
CC(C)=CCC/C(C)=C/CC/C(C)=C/CC/C(C)=C/CO -23.3% and -24.2%
COc1cccc(CN2C(=O)NC(C)(C3CCN(Cc4cnn(C)c4C)CC3)C2=O)c1OC (stereo unspecified) -8.25%
COc1ccc(CN2CCOc3ccc(C(O)c4cccnc4)cc3C2)cc1O (stereo unspecified) -3.36%
CCN(CC)S(=O)(=O)c1ccc(C(=O)O)cc1 -1.33%
COc1cccc(-c2nc(NCCN3CCOCC3)c3ccccc3n2)c1 -8.26%
COC(=O)C[C@H]1c2ccccc2S(=O)(=O)N1C(C)C -12.6%
Oc1cc2c(c(Cl)c1O)CCNCC2c1ccccc1 (stereo unspecified) 3.91% and -26%
CC(=O)OC1CC(OC(C)=O)[C@]2(C)C(CC(=O)[C@]3(C)C2CC[C@@]2(C)C(C(=O)O)OC(=O)C4OC423)C1(C)C (stereo partly specified) -5.04%
CC1(C)OC2CC3C4CC(F)C5=CC(=O)C=C[C@@]5(C)[C@@]4(F)C(O)C[C@@]3(C)[C@]2(C(=O)CO)O1 (stereo partly specified) -8.67%
O=C1CC[C@@H](C(=O)NCC2Cc3cc(Cl)cc(-c4ccc5[nH]ccc5c4)c3O2)N1 (stereo partly specified) -5.96%
COc1cc(-c2c(-c3ccc4c(c3)OCO4)noc2-c2ccsc2)cc(OC)c1OC -31.8%
CCCCCCCCCCOCCC(=O)O 1.63%
COc1ccc(CNc2cc(-c3ccccc3OC)ncn2)c(OC)c1 -8.46%
Cc1cc(C(=O)Nc2ccccc2-c2nc(CNC(=O)C3(C)CCCCC3)c(C)o2)c(C)o1 -7.75%
O=C(O)[C@H]1CN[C@H](C(=O)O)C1 -10.5%
COc1cc(CN2CCOc3ccc(CN4CCC(O)(c5cccnc5)CC4)cc3C2)cc(OC)c1 -4.81%
CN(C)c1ccc(/C=C/c2cc3ccccc3c[n+]2C)cc1 -10.3%
O=C(CCCN1CCC(O)(c2cccc(C(F)(F)F)c2)CC1)c1ccc(F)cc1 -10.5% and -13.7%
CCC1C(=O)NCCN1Cc1ccc2c(c1)CN(Cc1ccc(OC)cc1OC)CCO2 (stereo unspecified) -1.23%
CN(C)c1ccc(/C=C/c2cc3ccccc3cn2)cc1 -23.7%
CN(C)CCCn1cc(C2=C(c3c[nH]c4ccccc34)C(=O)NC2=O)c2ccccc21 -11.3%
COc1ccc(S[C@@H]2C[C@@H](C(=O)Nc3ccc4nccnc4c3)N(C3Cc4ccccc4C3)C2)cc1 -15.7%
COc1ccccc1C(=O)N[C@@H]1c2ccccc2C2(CCN(Cc3ccc(C)o3)CC2)[C@H]1O -0.971%
CC(=O)N1CCC2(CCCN(c3cccc(-c4ccccc4)c3)C2)CC1 -24.9%
COc1nc(N)nc2c1ncn2[C@@H]1O[C@H](CO)[C@@H](O)[C@@H]1O 16.1%
COC(=O)N1CCC2(CC1)CCN(c1ncccn1)CC2 -4.41%
CN(C)c1ccc(-c2cncnc2-n2ccnc2)cc1 -17.4%
CC(C)(C)CC(C)(C)c1ccc(O)c(-n2nc3ccccc3n2)c1 2.69%
